# From patent publication US20170174769A1 (Regeneron, published 2017)
# B1: scFv8092N-IgG4mutFc x scFv8870P-IgG4mutFc* Heterodimer (bispecific antibody)
# chain 1: QVQLQESGPGLVKPSETLSLTCTVSGGSISSYYWSWIRQPPGKGLDWIGHIYYSGTTYYNPSLKSRVSISLDTSKNQFSLKLSSVTAADTAVYYCARHLRGYSSGREFDYWGQGTLVTVSSGGGGSGGGGSGGGGSDIQMTQSPSSLSASVGGRVSLTCRASQSIFSYLNWYQQKPGKAPKLLIYAASNLQSGVPSRFSGSGSGTDFTLTISSLQPEDFATYSCQQSYNIPYTFGQGTKLEIKGGGGSGGGGSGGGGS[human IgG4 Fc with S228P (EU numbers) not spelt out]
# chain 2: EVQLVESGGGVVRPGGSLRLSCAASGFKFDVYGMSWVRQLPGKGLEWVSGISWTGGSSGYADSVKGRFTISRDNGKKSLYLQMNSLRAEDTALYYCTREEDYWGQGTLVTVSSGGGGSGGGGSGGGGS[about 100 residues not spelt out]LTFGGGTKVEIKGGGGSGGGGSGGGGSESKYGPPCPPCPAPEFLGGPSVFLFPPKPKDTLMISRTPEVTCVVVDVSQEDPEVQFNWYVDGVEVHNAKTKPREEQFNSTYRVVSVLTVLHQDWLNGKEYKCKVSNKGLPSSIEKTISKAKGQPREPQVYTLPPSQEEMTKNQVSLTCLVKGFYPSDIAVEWESNGQPENNYKTTPPVLDSDGSFFLYSRLTVDKSRWQEGNVFSCSVMHEALHNRFTQKSLSLSPGK
# notes: also called 8870P ScFv-Fc*/8092N ScFv-Fc; H4H8870P ScFv-Fc*/H4H8092N ScFv-Fc
# B2: Fusion 3 (Homodimer) (Fc fusion)
# chain: QVQLVESGGGVVQPGRSLRLSCVASGFTFSSYGMHWVRQAPGKGLEWVAVISFDGSNKYYADSVKGRFTISRDNSKNTLYLQMNSLRPADTAVYYCAKDRSNYYYFGMDVWGQGTTVTVSSGGGGSGGGGSGGGGSDIVMTQTPLSLPVTPGEPASISCRSSQSLLDSDDGNTYLDWYLQKPGQSPQLLIYTLSYRASGVPDRFSGSGSGTDFTLKISRVEAEDVGVYYCMQRIEFPLTFGGGTKVEIKGGGGSGGGGSGGGGS[human IgG4 Fc with S228P (EU numbers) not spelt out]GGGGSGGGGSGGGGSLLQFGGQVRQRYLYTDDAQQTEAHLEIREDGTVGGAADQSPESLLQLKALKPGVIQILGVKTSRFLCQRPDGALYGSLHFDPEACSFRELLLEDGYNVYQSEAHGLPLHLPGNKSPHRDPAPRGPARFLPLPGLPPAPPEPPGILAPQPPDVGSSDPLSMVGPSQGRSPSYAS
# notes: also called 8900P ScFv-Fc fusion; Anti-hFGFR1c(H4H8900P ScFv)-Fc-[deltaN hFGF21(L37-S209)]
# Columns and labels:
# [1] = biological target: T1, extracellular domain of human FGFR1c expressed with C-terminal V5 and hexahistidine tags (human, UniProt P11362 22-376); test: SPR, mAb captured, 37 C
# T1 construct: also called hFGFR1c-V5-6His
# T1 sequence: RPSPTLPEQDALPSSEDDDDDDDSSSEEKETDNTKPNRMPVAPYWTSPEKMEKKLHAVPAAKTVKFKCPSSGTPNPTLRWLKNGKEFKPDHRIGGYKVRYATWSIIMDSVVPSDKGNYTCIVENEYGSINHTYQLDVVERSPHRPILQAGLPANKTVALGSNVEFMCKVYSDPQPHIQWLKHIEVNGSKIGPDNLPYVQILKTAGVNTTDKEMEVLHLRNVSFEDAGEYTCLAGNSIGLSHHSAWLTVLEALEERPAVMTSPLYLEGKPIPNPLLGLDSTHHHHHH
# Method: (§1) Equilibrium dissociation constants (KD values) for human KLB or human FGFR1c binding to purified anti-KLB/FGFR1c monoclonal antibodies were determined using a real-time surface plasmon resonance biosensor using a Biacore T-200 or 4000 instrument. The Biacore sensor surface was derivatized by amine coupling with either a polyclonal rabbit anti-mouse antibody (GE, # BR-1008-38) or with a monoclonal mouse anti-human Fc antibody (GE, # BR-1008-39) to capture anti-KLB/FGFR1c monoclonal antibodies expressed with either a mouse Fc or a human Fc, respectively. All Biacore binding studies were performed in a buffer composed of 0.01M HEPES pH 7.4, 0.15M NaCl, 3mM EDTA, 0.05% v/v Surfactant P20 (HBST running buffer). […] Association of hKLB-HA-6His or hFGFR1c-V5-6His to the captured monoclonal antibody was monitored for 3.5 to 4 minutes and the dissociation of hKLB-HA-6His or hFGFR1c-V5-6His in HBST running buffer was monitored for 8-12 minutes. All the binding kinetics experiments were performed at 25° C. or 37° C. Kinetic association (kₐ) and dissociation (kd) rate constants were determined by fitting the real-time sensorgrams to a 1:1 binding model using Scrubber 2.0c curve fitting software. Binding dissociation equilibrium constants (KD) and dissociative half-lives (t½) were calculated from the kinetic rate constants as: […]
# [2] = biological target: T2, extracellular domain of human KLB expressed with C-terminal HA and hexahistidine tags (human, UniProt Q86Z14 1-996); test: SPR, mAb captured, 37 C
# T2 construct: also called hKLB-HA-6His; hKLB-HA-6his
# T2 sequence: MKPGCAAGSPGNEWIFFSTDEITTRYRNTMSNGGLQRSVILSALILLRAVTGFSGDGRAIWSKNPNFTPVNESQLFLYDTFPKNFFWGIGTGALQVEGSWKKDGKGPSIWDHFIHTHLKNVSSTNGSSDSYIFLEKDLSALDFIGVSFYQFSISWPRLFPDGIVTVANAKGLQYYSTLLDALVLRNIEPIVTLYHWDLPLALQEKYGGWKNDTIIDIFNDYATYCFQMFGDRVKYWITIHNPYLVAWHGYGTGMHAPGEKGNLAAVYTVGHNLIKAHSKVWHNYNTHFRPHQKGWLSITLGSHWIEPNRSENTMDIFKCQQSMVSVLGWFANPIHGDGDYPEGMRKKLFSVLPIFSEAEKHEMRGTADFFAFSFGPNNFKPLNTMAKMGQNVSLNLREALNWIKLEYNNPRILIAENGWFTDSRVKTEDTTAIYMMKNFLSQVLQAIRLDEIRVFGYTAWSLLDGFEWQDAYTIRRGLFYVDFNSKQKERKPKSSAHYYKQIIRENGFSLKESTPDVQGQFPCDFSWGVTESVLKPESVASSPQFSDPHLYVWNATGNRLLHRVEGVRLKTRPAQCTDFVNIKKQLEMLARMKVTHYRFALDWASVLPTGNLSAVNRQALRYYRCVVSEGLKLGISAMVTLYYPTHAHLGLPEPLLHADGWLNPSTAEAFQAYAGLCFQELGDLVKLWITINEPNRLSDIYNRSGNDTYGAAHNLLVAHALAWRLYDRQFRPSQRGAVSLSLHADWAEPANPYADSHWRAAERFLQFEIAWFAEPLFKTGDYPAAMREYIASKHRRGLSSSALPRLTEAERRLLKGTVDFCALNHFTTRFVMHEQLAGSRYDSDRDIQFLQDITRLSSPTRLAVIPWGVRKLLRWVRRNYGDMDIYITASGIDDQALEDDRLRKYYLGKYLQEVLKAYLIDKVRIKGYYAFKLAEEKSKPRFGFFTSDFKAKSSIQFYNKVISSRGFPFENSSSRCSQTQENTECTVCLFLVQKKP
# Method: as §1
# [3] = biological target: T3, human KLB and human FGFR1c co-expressed on HEK293/hKLB/hFGFR1c/SRE-luc cells (human, UniProt Q86Z14 1-1044; P11362 22-822); test: cell-based or functional assay
# [4] = biological target: T1, extracellular domain of human FGFR1c …; test: SPR, mAb captured, 25 C
# Method: as §1
# [5] = biological target: T2, extracellular domain of human KLB …; test: SPR, mAb captured, 25 C
# Method: as §1
# [6] = biological target: T4, cell-surface human FGFR1c (amino acids 1-731 of NP_075594) with cell-surface human KLB on … (human, UniProt P11362 22-822); test: cell-based or functional assay
# [7] = biological target: T4, cell-surface human FGFR1c (amino acids …); test: cell-based or functional assay; remark: listed apart in the source
# [8] = biological target: T5, full-length human FGFR1c on HEK293/hFGFR1c/SRE-luc cells (human, UniProt P11362 22-822); test: FACS on stable HEK293 cells, 67 nM
# T5 construct: amino acids 1-733 of NP_075593
# Method: (§2) For the FACS analysis, HEK293 parental, HEK293/hFGFR1c, HEK293/hFGFR1c/hKLB, and HEK293/mFGFR1c/mKLB cells were dissociated and plated onto 96-well v-bottom plates at 0.5×10⁶ cells/well in 2% FBS/PBS. […] Control mAb2 was tested at a concentration of 965 nM. After primary protein incubation cells were washed and incubated with 3.75 μg/mL fluorescently conjugated secondary antibodies for 30 minutes at 4° C. Cells were filtered and analyzed on Accuri™ 6 Flow Cytometer. Unstained and secondary antibody alone controls were also tested for all cell lines. The results were analyzed using FlowJo version 9.52 software and geometric mean (Geom. Mean) of fluorescence for viable cells were determined. Geom. mean of fluorescence for each antibody was then normalized to Geom. mean of unstained cells to obtain relative binding of antibody (binding ratios) per each cell type.
# [9] = biological target: T3, human KLB and human FGFR1c co-expressed …; test: FACS on stable HEK293 cells, 67 nM
# Method: as §2
binder,measurement,setting,value
B1,180 nM hFGFR1c-V5-6His Bind (RU),[1],1.2 RU
same,20 nM hKLB-HA-6His Bind (RU),[2],45.4 RU
same,Kd,[2],2.89 nM
same,koff,[2],0.000265 s⁻¹
same,kon,[2],91600 M⁻¹ s⁻¹
same,t1/2,[2],0.728 h
same,"EC50, SRE-luc activation without ligand",[3],1.2 nM
same,"IC50, inhibition of 1 nM 6His-hFGF21",[3],0.72 nM
same,Maximum Activation (%),[3],2.2%
same,Maximum Inhibition (%),[3],58%
same,180 nM hFGFR1c-V5-6His Bind (RU),[4],1.2 RU
same,binding result,[4],no binding (tested: 180 nM)
same,20 nM hKLB-HA-6His Bind (RU),[5],12.8 RU
same,Kd,[5],0.725 nM
same,koff,[5],8.92e-05 s⁻¹
same,kon,[5],123000 M⁻¹ s⁻¹
same,t1/2,[5],2.16 h
same,% Activation,[6],2.2%
same,"EC50, SRE-luc activation",[6],1.3 nM
B2,% Activation,[7],20.2%
same,"EC50, SRE-luc activation",[7],1.1 nM
same,MFI Ratio to unstained cells,[8],4 fold
same,MFI Ratio to unstained cells,[9],12 fold
same,% Activation,[6],22.6%
same,"EC50, SRE-luc activation",[6],1 nM

# Read-outs that look alike come from different tables or passages of the source.
